Measured values as given in PubChem BioAssay AID1346428 (National Center for Advancing Translational Sciences (NCATS), 2018).
Out of some 48,000 compounds screened, about 1,200 (2.5%) were called active. Roughly 2% stayed inconclusive and do not appear here.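 How the source made its calls: active means activation of at least 60% and not above a set upper limit (about 1 call in 100 departs from these limits); inconclusive means activation of 40% to 60%, or above that upper limit; inactive means activation under 40%.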 Some of the results follow.

Biological target: Probable G-protein coupled receptor 32 (Homo sapiens) (UniProt O75388)
Chain of UniProt O75388 (O75388 whole entry, looked up): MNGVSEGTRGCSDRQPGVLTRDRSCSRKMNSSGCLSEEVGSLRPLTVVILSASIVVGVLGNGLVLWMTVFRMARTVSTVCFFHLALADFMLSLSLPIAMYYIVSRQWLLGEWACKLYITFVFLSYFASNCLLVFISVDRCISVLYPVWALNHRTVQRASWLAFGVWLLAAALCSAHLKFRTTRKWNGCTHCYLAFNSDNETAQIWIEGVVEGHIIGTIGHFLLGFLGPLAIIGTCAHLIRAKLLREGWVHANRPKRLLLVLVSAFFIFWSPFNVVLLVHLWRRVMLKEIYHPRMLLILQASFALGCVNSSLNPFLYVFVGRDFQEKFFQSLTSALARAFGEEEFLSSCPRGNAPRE
Test: qHTS for Agonists of Human Resolvin D1 Receptor DRV1; further: 0% is about no effect
Conditions: CHO-K1 GPR32 beta-arrestin PathHunter luminescence, 90 min; at 76.9 µM; active compounds read high; zero percent set by DMSO-only wells
Method in brief: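 Agonism was scored as beta-arrestin recruitment to ProLink-fused GPR32 in stably transfected CHO-K1 cells, giving a chemiluminescent beta-Gal signal; compounds were incubated 90 min at 37 °C.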

activation, inactive:
COc1cccc(CNC(=O)c2ccc3c(=O)n4nc(Nc5ccccc5)sc4nc3c2)c1 -16.6%
CCOC(=O)c1c(C)n(-c2ccccc2)c2ccc(OC(=O)c3cccc(C)c3)cc12 9.71%
CC(=O)c1cc(-c2ccc(F)cc2)n(CC(=O)NC2CCC(C)CC2)c1C (centres undefined) -17.3%
CC(=O)c1cccc(NC(=O)Nc2nnc(N3CCCC3)s2)c1 4.95%
COc1ccc2cc(-c3nnc(Nc4ccccc4)s3)c(=O)oc2c1 -3.94%
CCN(CC)C(=O)N1CCN(C)CC1 4.69%
COc1ccc(-n2nc(C(=O)Nc3ccc(Cl)cn3)c3c4ccccc4n(C)c3c2=O)cc1 5.8%
O=C(Nc1cccc(C(F)(F)F)c1)N1CC2CCCN2c2ccccc21 (centres undefined) -6.63%
Cc1ccccc1C(=O)OCc1cc(=O)n2nc(C(C)C)sc2n1 -3.12%
COc1cc(OC)c(N(C)C(=O)c2cn(C3CCCC3)c(=O)c3c2c2ccccc2n3C)cc1Cl -35.6%
Nc1ccc(N=Nc2ccccc2)c(N)n1 -43.9%
COc1ccc(-n2nc(C(=O)O)c(=O)n(C)c2=O)cc1 -7%
Cc1ccc(N2CCN(C(=O)c3cnn(-c4ccc(F)cc4F)c3C3CCN(C(=O)OC(C)(C)C)CC3)CC2)c(C)c1 -28.7%
CN(Cc1ccccc1)S(=O)(=O)c1ccc2[nH]c3c(c2c1)CCCCC3 40.2%
CCN1CCN(C(c2ccc(C)cc2)c2c(O)cc(C)n(Cc3ccco3)c2=O)CC1 (centres undefined) -16.3%
O=C(O)c1cc(O)c(O)c(O)c1 36%
CCOC(=O)N1CCC(NC(=O)c2cnn(-c3cccc(F)c3)c2-n2cccc2)CC1 -7.83%
Cc1c(Cl)cccc1NC(=O)C1CCCN(c2ncnc3onc(C)c23)C1 (centres undefined) 2.43%
O=C(NCc1ccccc1Cl)c1ccc2c(c1)N(Cc1ccccc1)C(=O)CS2 -16.4%
Cc1ccc(Cl)cc1N1CCN(C(=O)c2ccc3c(c2)CCN3S(=O)(=O)c2ccccc2)CC1 -21.8%
Cc1ccc(-c2nnc(Nc3cccc(O)c3)c3ccccc23)cc1S(=O)(=O)NCC1CCCO1 (centres undefined) -4.38%
CC1CCN(S(=O)(=O)c2ccc3c(c2)c(=O)c(C(=O)NC(C)c2ccccc2)cn3C)CC1 (centres undefined) -20.4%
CN(CC(=O)Nc1ccccc1F)S(=O)(=O)c1ccc2c(c1)c(=O)n(C)c(=O)n2C 15.3%
COc1ccc(CCC(=O)NCc2nc3cccnc3n2Cc2ccc(F)cc2)cc1 -13.8%
